Measured values taken from US12441790B2, “Binding proteins to the human thrombin receptor, PAR4” (MONASH UNIVERSITY, priority 2017, dated 2025).

Legend:
PAR4 [1] = molecular target: T1, PAR4 (Homo sapiens, UniProt Q96RI0); test: ELISA binding ratio to PAR4
T1 construct: host or cells: synthetic peptide
Method: 96-well ELISA plates were coated with 50 μl of antigen diluted to a concentration of 4 μg/ml in coating buffer (0.1M Sodium Hydrogen Carbonate (NaHCO3) (Merck, #1.06329.0500)). Plates were incubated overnight at 4° C.
Wells were then washed with an automated plate washer (300 μl 1×PBS, 3 times). The wells were blocked with 200 μl of blocking buffer (3% BSA/1×PBS (BSA: (Sigma, #1001647742)) for 1 hour at room temperature followed by washing as above.
50 μl of undiluted hybridoma cell culture supernatant was added into appropriate wells and incubated at room temperature for 1 hour followed by washing as above. […] Wells were washed as above. A set of substrate tablets (1×silver, 1×gold) into 20 ml of ddH20 by shaking vigorously on the thermomixer for 6 mins at room temperature. 50 μl of substrate ([…]™ p-Nitrophenyl phosphate Tablets (Sigma-Aldrich, N2770-50SET)) was added into each well and incubated for 20-25 mins at room temperature. […] Absorbance was read at 405 nm immediately after adding STOP solution with the ELISA reader, using the ‘RdrOle4’ software.
Hybridoma supernatants were initially screened for binding to the immunising PAR4 peptide sequence ([…]-KLH (SEQ ID NO: 4)) by antigen microarray, with binding determined by fluorescence intensity signal over background (signal from medium alone). […]

PAR4 [2] = molecular target: T2, PAR4 (Homo sapiens, UniProt Q96RI0); test: Functional bioassays for PAR4 inhibitory function; assay type: cell-based
T2 construct: host or cells: HEK293 cells transfected with FLAG-PAR4 and/or isolated human platelets
T2 sequence (Q96RI0 18-385): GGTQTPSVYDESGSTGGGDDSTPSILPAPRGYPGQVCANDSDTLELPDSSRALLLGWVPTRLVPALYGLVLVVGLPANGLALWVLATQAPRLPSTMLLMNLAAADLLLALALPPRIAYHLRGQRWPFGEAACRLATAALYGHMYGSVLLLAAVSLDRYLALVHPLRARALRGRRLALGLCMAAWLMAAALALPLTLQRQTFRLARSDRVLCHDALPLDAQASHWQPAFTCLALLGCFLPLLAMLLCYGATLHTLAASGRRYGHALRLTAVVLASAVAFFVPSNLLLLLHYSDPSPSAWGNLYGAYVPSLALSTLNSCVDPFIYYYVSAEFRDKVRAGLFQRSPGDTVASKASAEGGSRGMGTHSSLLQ

human platelets = test: Functional screen of hybridoma supernatants by platelet aggregation assay; assay type: cell-based; details: aggregation as % of control
Method: Platelet aggregation was measured by light transmission aggregometry in a 96-well plate format. Human isolated platelets (2×10^8/ml) were pre-treated for 10 mins at 37° C. with dimethylsulfoxide (DMSO) (1% v/v), the PAR1 antagonist vorapaxar (90 nM), the anti-PAR4 antibody 5RC3 (20-100 μg/ml), or a combination of vorapaxar and 5RC3. Platelets were treated with one of thrombin (0.1 U/ml) and aggregation was analysed at 37° C. in a FLUOstar OPTIMA plate reader (BMG Labtech) using a 595 nm excitation filter, for a period of 50 min (10 read cycles with 5 min double orbital shake period between each read). Optical density was normalised against the blank (maximum) and unstimulated platelets (minimum) and expressed as % maximum.
Thrombin-induced platelet aggregation in the presence of a PAR1 antagonist (i.e. PAR4-dependent aggregation) is shown for 30 monoclonal antibody supernatants binding to human platelets. Antibody supernatant was mixed with human platelets (2×10^8 cells) at a 1:1 ratio.

- binding to PAR4 (PAR4 [1]): bound to PAR4
B1: 5H.RD2: PAR4-binding, non-inhibitory monoclonal antibody, IgG1/K, SEQ ID NOs 32 and 33 (antibody, V domains shown)
VH: EVQLVESGGDLVKPGGSLRLSCSASGFTFFNTWMNWVRQAPGKGLEWVGRVKSKNDGGTKDYAAPVTGRFTISRDDSKDTLYLQMNSLKTEDTAVYYCTTDPHYDFWSAYWGQGTLVTVSS
VL: [letters of about 100 residues not shown]QFMYTFGQGTKLEIK
modifications: VH of 5H.RD2; VL of 5H.RD2
- PAR4 inhibitory (antagonist) function (PAR4 [2]): did not demonstrate inhibitory function against PAR4; also recorded: did not function as an antagonist

B2: MoB5H D2: hybridoma supernatant clone, second screening; likely parent of 5H.RD2 (antibody, V domains shown)
VH: B1 VH
VL: [letters of about 100 residues not shown]QFMYTFGQGTKLEIK
- Functional screen on hybridoma supernatants (human platelets): no

Entries after “also recorded” stand apart in the source; their conditions may differ. One block for each molecule: values may come before it.
